Results are given in words; binding and its absence hold for the method and conditions named. In cells and extracts the contact can be indirect. Some results given as binding are weak or reduced against the parent protein; the word gives no strength. Each block holds one substance with its values, some of them ahead of it.
What was measured:
[1] = biological target: C-X-C chemokine receptor 4 (CXCR4) fused to a Venus BiFC fragment (UniProt P61073); experiment: split reporter; BiFC with Venus fragments VNm10 and VC155 at the C-termini of the receptors; HEK293A cells cotransfected, fixed with 2% formaldehyde 48 h after transfection, confocal microscopy
[2] = biological target: CXCR4 fused to Rluc8 (BRET donor) or mCitrine (BRET acceptor) (UniProt P61073); experiment: FRET or BRET; BRET donor saturation assay in HEK293A cells: fixed amount of donor (GPCR-Rluc8), increasing amounts of acceptor (GPCR-mCitrine); coelenterazine h 5 μM; BRET plotted against mCitrine/Rluc8
[3] = biological target: histamine receptor H1 (HRH1) fused to a Venus BiFC fragment (UniProt P35367); experiment: split reporter; BiFC with Venus fragments VNm10 and VC155 at the C-termini of the receptors; HEK293A cells cotransfected, fixed with 2% formaldehyde 48 h after transfection, confocal microscopy
[4] = biological target: HRH1 fused to mCitrine (BRET acceptor) or Rluc8 (BRET donor) (UniProt P35367); experiment: FRET or BRET; BRET donor saturation assay in HEK293A cells: fixed amount of donor (GPCR-Rluc8), increasing amounts of acceptor (GPCR-mCitrine); coelenterazine h 5 μM; BRET plotted against mCitrine/Rluc8

By UniProt entry, the sequences of proteins in these tests, tags left out.
UniProt P61073: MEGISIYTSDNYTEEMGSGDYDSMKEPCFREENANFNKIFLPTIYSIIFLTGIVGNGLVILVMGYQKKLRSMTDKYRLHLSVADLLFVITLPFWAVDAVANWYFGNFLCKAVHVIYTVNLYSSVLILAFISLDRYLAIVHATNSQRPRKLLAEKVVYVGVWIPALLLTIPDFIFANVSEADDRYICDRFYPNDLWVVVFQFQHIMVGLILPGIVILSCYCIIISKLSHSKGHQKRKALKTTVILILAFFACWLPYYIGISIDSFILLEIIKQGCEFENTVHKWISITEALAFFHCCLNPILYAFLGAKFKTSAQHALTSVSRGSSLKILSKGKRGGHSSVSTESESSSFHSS
UniProt P35367: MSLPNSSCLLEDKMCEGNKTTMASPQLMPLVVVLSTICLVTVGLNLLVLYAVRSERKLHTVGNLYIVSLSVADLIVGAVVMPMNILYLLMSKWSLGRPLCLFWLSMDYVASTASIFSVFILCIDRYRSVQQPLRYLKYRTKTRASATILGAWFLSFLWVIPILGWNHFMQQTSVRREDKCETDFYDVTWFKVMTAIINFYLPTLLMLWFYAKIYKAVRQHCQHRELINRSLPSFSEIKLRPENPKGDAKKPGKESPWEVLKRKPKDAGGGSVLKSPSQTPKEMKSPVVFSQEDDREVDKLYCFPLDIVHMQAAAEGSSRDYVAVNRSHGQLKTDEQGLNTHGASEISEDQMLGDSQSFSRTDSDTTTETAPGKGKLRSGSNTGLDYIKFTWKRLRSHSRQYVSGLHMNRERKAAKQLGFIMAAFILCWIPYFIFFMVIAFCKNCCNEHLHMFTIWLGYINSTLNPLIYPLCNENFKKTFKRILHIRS
UniProt P35372: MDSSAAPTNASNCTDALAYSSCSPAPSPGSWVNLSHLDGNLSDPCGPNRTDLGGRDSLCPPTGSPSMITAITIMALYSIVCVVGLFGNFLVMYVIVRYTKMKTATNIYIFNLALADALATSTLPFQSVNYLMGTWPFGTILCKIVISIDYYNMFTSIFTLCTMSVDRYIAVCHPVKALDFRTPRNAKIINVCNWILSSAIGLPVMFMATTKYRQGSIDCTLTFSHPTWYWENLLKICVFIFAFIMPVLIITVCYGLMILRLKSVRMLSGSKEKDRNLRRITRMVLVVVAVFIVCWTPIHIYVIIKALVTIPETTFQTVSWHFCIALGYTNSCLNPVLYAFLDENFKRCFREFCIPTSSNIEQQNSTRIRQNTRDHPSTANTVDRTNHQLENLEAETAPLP

binding [1]: no binding
Substance: opioid receptor μ type 1 (OPRM1), N-terminal HA tag, fused to a Venus BiFC fragment (from UniProt P35372 1-400)

binding [2]: binds
Substance: HRH1 fused to mCitrine (BRET acceptor) or Rluc8 (BRET donor) (from UniProt P35367 1-487) (receptor)

binding [1]: binds
Substance: histamine receptor H1 (HRH1) fused to a Venus BiFC fragment (from UniProt P35367 1-487)

binding [3]: binds
Substance: C-X-C chemokine receptor 4 (CXCR4) fused to a Venus BiFC fragment (from UniProt P61073 1-352)

binding [4]: binds
Substance: CXCR4 fused to Rluc8 (BRET donor) or mCitrine (BRET acceptor) (from UniProt P61073 1-352) (receptor)

From publication PMC9895059
